The BET-seq Pho4 binding data (Le et al. 2018)
The list shows a part of the results. These are noisy estimates, calculated here from bound and input reads.

Molecular target: T1, Pho4 (S. cerevisiae) (UniProt P07270)
T1 sequence: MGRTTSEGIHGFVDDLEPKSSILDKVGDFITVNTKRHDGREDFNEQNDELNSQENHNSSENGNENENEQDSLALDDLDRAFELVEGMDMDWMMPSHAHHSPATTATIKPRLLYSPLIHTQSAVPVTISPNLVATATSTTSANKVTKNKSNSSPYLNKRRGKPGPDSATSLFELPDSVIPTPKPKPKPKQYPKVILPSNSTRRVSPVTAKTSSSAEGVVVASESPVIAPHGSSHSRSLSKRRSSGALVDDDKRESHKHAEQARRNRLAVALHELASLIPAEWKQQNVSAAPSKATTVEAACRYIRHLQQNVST
Assay: relative binding free energy (BET-seq); higher = weaker binding
Conditions: reference: library average

Sequence	relative binding free energy
GTTAACACGTGATAGT	0.13 kcal/mol
TGGTCCACGTGGGGAA	-0.13 kcal/mol
GCAGGCACGTGGAGGT	-0.17 kcal/mol
AGAGTCACGTGTCGGG	0.1 kcal/mol
CGCAACACGTGTGGGG	0.15 kcal/mol
GGTGACACGTGCGGGC	0.05 kcal/mol
GTAGTCACGTGCGCGG	-0.07 kcal/mol
AAATTCACGTGGGGAG	0.15 kcal/mol
CTAGGCACGTGAGGCG	0.1 kcal/mol
ATTGTCACGTGGTGAT	0.07 kcal/mol
TATGTCACGTGAGTAA	0.22 kcal/mol
GATGCCACGTGAGGGC	0.38 kcal/mol
AGGTACACGTGGGCTT	-0.03 kcal/mol
TGCGGCACGTGAGGGC	0.03 kcal/mol
GTCTACACGTGGGTGG	0.02 kcal/mol
CTTTGCACGTGGCAGG	-0.06 kcal/mol
GTAGACACGTGAAAGG	0.43 kcal/mol
CAGGTCACGTGGGGTT	0 kcal/mol
GGGAACACGTGGGCGT	-0.21 kcal/mol
GGTTTCACGTGGTTTC	0.28 kcal/mol
AGCGTCACGTGGGGTG	-0.05 kcal/mol
GGTAGCACGTGGGCCG	-0.08 kcal/mol
GAAATCACGTGGTGTA	0.26 kcal/mol
CGTGGCACGTGCGCGG	-0.39 kcal/mol
GGATACACGTGTGGTT	0.12 kcal/mol
TTTGGCACGTGTCTTG	-0.14 kcal/mol

Sequence	relative binding free energy
AAAGGCACGTGTTATG	-0.01 kcal/mol
GTATTCACGTGCAAGT	0.24 kcal/mol
GAGTTCACGTGATGGT	0.42 kcal/mol
ATAGTCACGTGCGTAT	-0.05 kcal/mol
TCAAGCACGTGGGGGA	-0.27 kcal/mol
CTTTGCACGTGGAGGA	0.03 kcal/mol
AATGTCACGTGTTGAG	0.19 kcal/mol
CTGTACACGTGTAGTT	0.02 kcal/mol
AAATACACGTGAGGTT	0.19 kcal/mol
GGGTCCACGTGGGAAT	0.07 kcal/mol
GTTGGCACGTGAGCTG	0.03 kcal/mol
CGTCTCACGTGTTAGG	0.11 kcal/mol
TAGGTCACGTGTGTTC	0.15 kcal/mol
TGGTACACGTGCATGA	0.06 kcal/mol
AAGGGCACGTGTAATT	0.14 kcal/mol
GGTTGCACGTGCTGGC	0.04 kcal/mol
CGATGCACGTGTTGCG	-0.01 kcal/mol
GAAGGCACGTGCGGGA	-0.12 kcal/mol
GTCGGCACGTGCGGGG	-0.05 kcal/mol
TGCATCACGTGGTACT	0.14 kcal/mol
TTGGCCACGTGGGGGT	-0.19 kcal/mol
GAGGGCACGTGGCTAT	-0.22 kcal/mol
AGTAGCACGTGAATAG	0.26 kcal/mol
TTATACACGTGGCAGG	-0.06 kcal/mol
GTAATCACGTGTTTAT	0.08 kcal/mol
TATACCACGTGTTATT	0.01 kcal/mol

Sequence	relative binding free energy
CATTTCACGTGGTGGG	0.19 kcal/mol
AGTGGCACGTGGGGAA	-0.18 kcal/mol
TTCAGCACGTGTGATG	0.06 kcal/mol
TTTTACACGTGCGTGG	0.14 kcal/mol
GTTGTCACGTGACGTT	0.11 kcal/mol
TACGGCACGTGGGTAG	-0.19 kcal/mol
CCGTGCACGTGTGTTG	0.03 kcal/mol
ATTAACACGTGGTATT	-0.16 kcal/mol
GTAGCCACGTGAGGTT	0.17 kcal/mol
ATGTACACGTGTCGGT	0.16 kcal/mol
AGGAACACGTGGTGCG	-0.13 kcal/mol
TGTGGCACGTGGGGAT	-0.17 kcal/mol
TTCGTCACGTGTTAAA	0.12 kcal/mol
CAGGTCACGTGTGTTT	0.06 kcal/mol
AGTGTCACGTGCATTG	-0.06 kcal/mol
TTGTCCACGTGGGCTG	-0.03 kcal/mol
TAGCGCACGTGAGGGC	0.12 kcal/mol
TACGGCACGTGTGTTT	0.05 kcal/mol
GGGATCACGTGGTAAG	0.21 kcal/mol
AGCGTCACGTGTTGTG	0.05 kcal/mol
GTTGTCACGTGTTGCG	0.08 kcal/mol
CTGGGCACGTGAGGGC	0.11 kcal/mol
TTCAACACGTGTGTAG	-0.03 kcal/mol
AAGCGCACGTGGGGAG	-0.19 kcal/mol
AGGATCACGTGATATG	0.22 kcal/mol
GATATCACGTGTATTA	0.13 kcal/mol

Sequence	relative binding free energy
GTAATCACGTGGGTTC	0.08 kcal/mol
TGTGTCACGTGGATTT	0.09 kcal/mol
GTGGCCACGTGGGGAA	-0.15 kcal/mol
AGCGTCACGTGGTGGG	0.01 kcal/mol
TTTGTCACGTGTGAGG	0.2 kcal/mol
GAGTGCACGTGGAATG	0.23 kcal/mol
GGATTCACGTGGAATT	0.1 kcal/mol
TGGTTCACGTGTTCGA	0.22 kcal/mol
ATAGGCACGTGGTAAG	-0.13 kcal/mol
TATGGCACGTGTTCGG	-0.15 kcal/mol
GATGTCACGTGCTTGT	0.07 kcal/mol
TGTTCCACGTGCGCGT	0 kcal/mol
TTTGACACGTGATCTT	0.02 kcal/mol
TCATTCACGTGGGAGG	0.25 kcal/mol
TGAAACACGTGAGGTA	0.27 kcal/mol
TTGCGCACGTGTTGTA	-0.13 kcal/mol
GTGTGCACGTGACGAT	0.11 kcal/mol
TATTGCACGTGTCGTG	-0.03 kcal/mol
ATTTGCACGTGGATGC	-0.08 kcal/mol
TGTGGCACGTGGCCCG	-0.2 kcal/mol
ACGGGCACGTGGGGAT	-0.13 kcal/mol
TTAGACACGTGGAGTT	0.13 kcal/mol
GGTGGCACGTGACCGG	-0.11 kcal/mol
CGGCGCACGTGGATGG	-0.13 kcal/mol
GATATCACGTGAGATT	0.35 kcal/mol
ATTTACACGTGTTATG	0.08 kcal/mol

Sequence	relative binding free energy
AAATTCACGTGCGGTG	0.24 kcal/mol
TGTTACACGTGTTAGC	0.14 kcal/mol
GGCCGCACGTGAAGGT	0.3 kcal/mol
ATTGTCACGTGCGTCA	0.06 kcal/mol
TAAGTCACGTGTTTGC	0.09 kcal/mol
AATAACACGTGGTTGG	-0.05 kcal/mol
AGCATCACGTGTGTGA	0.21 kcal/mol
TAGATCACGTGTGGTC	0.19 kcal/mol
GATGTCACGTGTGGCA	0.02 kcal/mol
TCAGCCACGTGTAGGG	0.02 kcal/mol
AAGCGCACGTGTAGTT	0 kcal/mol
CTATACACGTGGCTGG	0.2 kcal/mol
TAGTGCACGTGGAAAT	0.13 kcal/mol
TGATGCACGTGTGTCT	-0.07 kcal/mol
TGGAGCACGTGGTATT	0.01 kcal/mol
GTGGTCACGTGCTGTC	0.26 kcal/mol
GTATGCACGTGTTAAT	0.05 kcal/mol
GTGGTCACGTGGGCGG	0.06 kcal/mol
TTAAGCACGTGTTTTG	-0.1 kcal/mol
TTTGGCACGTGATTCA	-0.07 kcal/mol
GAGTCCACGTGGTTTG	0.1 kcal/mol
TGACGCACGTGTGTAG	-0.1 kcal/mol
AGATGCACGTGTTAAG	0.02 kcal/mol
AATTTCACGTGAAATG	0.22 kcal/mol
GGCGGCACGTGGTGTT	-0.06 kcal/mol
GTATACACGTGTTGGT	0.08 kcal/mol

Sequence	relative binding free energy
TCATGCACGTGTGTAG	0.02 kcal/mol
TCTGTCACGTGGTAGG	0 kcal/mol
TGTTTCACGTGGCAGC	0.28 kcal/mol
ATTAGCACGTGATTAT	0 kcal/mol
ATAGACACGTGGTTTT	0.09 kcal/mol
TGTCACACGTGGGTTG	-0.13 kcal/mol
AGTATCACGTGTAGGG	0.1 kcal/mol
TCGAACACGTGGGGTA	-0.08 kcal/mol
TTATGCACGTGTCGGA	-0.1 kcal/mol
GTGTGCACGTGTTTGC	0.07 kcal/mol
GGTGTCACGTGACTTT	0.19 kcal/mol
TCGATCACGTGGGTGT	-0.05 kcal/mol
CTGTTCACGTGGGATG	0.11 kcal/mol
GCGATCACGTGGTAGT	0.14 kcal/mol
TTAATCACGTGTGAGT	0.15 kcal/mol
CTGCGCACGTGTATGT	-0.1 kcal/mol
TTCAGCACGTGATGAG	0.14 kcal/mol
GGGTGCACGTGAGGGA	0.13 kcal/mol
TAATTCACGTGCGGTA	0.23 kcal/mol
GGAGTCACGTGTTAGG	0.25 kcal/mol
CTTGTCACGTGTCGCG	0.2 kcal/mol
GGGTTCACGTGCAAGA	0.42 kcal/mol
TGATGCACGTGCCGTT	-0.13 kcal/mol
TGTAACACGTGGGGCA	-0.12 kcal/mol
GGATACACGTGTAGGA	0.22 kcal/mol
ATGGGCACGTGATAAG	0.01 kcal/mol

Sequence	relative binding free energy
GGCGACACGTGATTGG	0.19 kcal/mol
CTTGCCACGTGATGGT	0.06 kcal/mol
AGGTACACGTGTTTTC	0.16 kcal/mol
TTTTGCACGTGTTTGA	0.07 kcal/mol
ATCGGCACGTGGATGG	-0.13 kcal/mol
CGTATCACGTGGGATT	0.24 kcal/mol
TAATGCACGTGTATAG	0.01 kcal/mol
CGGGGCACGTGAGTTA	0.19 kcal/mol
GTGGCCACGTGGGTAA	-0.23 kcal/mol
TGCGTCACGTGACGGT	0.07 kcal/mol
AAGGTCACGTGGGGGT	-0.03 kcal/mol
CGTGACACGTGGTATT	-0.07 kcal/mol
TGCGTCACGTGGTTGA	0.15 kcal/mol
GGGGCCACGTGGCAGG	-0.22 kcal/mol
GTAAGCACGTGATATG	0.17 kcal/mol
TAGTTCACGTGAGTTT	0.43 kcal/mol
AGTTGCACGTGTACAT	-0.02 kcal/mol
TCATACACGTGTCGTT	0.19 kcal/mol
GTGTTCACGTGGGTAA	0.2 kcal/mol
ATTGTCACGTGGAGTA	0.08 kcal/mol
GTGTTCACGTGATATA	0.43 kcal/mol
ATGGGCACGTGAAGTG	0.24 kcal/mol
TTGCCCACGTGTGGGG	-0.1 kcal/mol
GGGCGCACGTGGTTGA	-0.12 kcal/mol
GTTATCACGTGTTAGA	0.15 kcal/mol
ATTGTCACGTGTGAAA	0.25 kcal/mol

Sequence	relative binding free energy
TTATGCACGTGGCGAT	-0.06 kcal/mol
GGAGGCACGTGGTTAG	-0.11 kcal/mol
ATTGTCACGTGACCTG	0.18 kcal/mol
GTGGACACGTGCGCGG	-0.18 kcal/mol
TGTAGCACGTGAGCGT	0.1 kcal/mol
TGCGACACGTGGTGAG	-0.02 kcal/mol
AGAAACACGTGTTTTG	-0.01 kcal/mol
TTGTGCACGTGCCTTG	-0.09 kcal/mol
GCTTGCACGTGAGTAT	0.2 kcal/mol
GGGATCACGTGTAGGT	0.2 kcal/mol
TCGGACACGTGGGTCA	-0.02 kcal/mol
TTATCCACGTGATTTT	0.04 kcal/mol
GCGTTCACGTGAGGAT	0.63 kcal/mol
GATATCACGTGAGGTG	0.45 kcal/mol
GTGTTCACGTGAATAC	0.53 kcal/mol
TATTACACGTGGGAGT	0.02 kcal/mol
TTTAGCACGTGCCGTT	-0.04 kcal/mol
TTAGGCACGTGATACT	0.01 kcal/mol
TAGTCCACGTGTGGTA	0.05 kcal/mol
AGGTTCACGTGTAGTA	0.29 kcal/mol
TATCACACGTGGTTGT	0.07 kcal/mol
TGAGGCACGTGATGAT	-0.05 kcal/mol
TTCGCCACGTGGTGGT	-0.1 kcal/mol
GGAGTCACGTGAGTTG	0.38 kcal/mol
TATATCACGTGTGTGA	0.13 kcal/mol
GTGTTCACGTGATCGA	0.42 kcal/mol

Sequence	relative binding free energy
GCGGTCACGTGAACGT	0.43 kcal/mol
AAAGTCACGTGTGAGT	0.13 kcal/mol
GGGCACACGTGGTGCG	-0.05 kcal/mol
AGTGCCACGTGTAGTG	-0.08 kcal/mol
CGGGACACGTGGTATG	-0.06 kcal/mol
GGCGGCACGTGATTGA	0.05 kcal/mol
AGATGCACGTGGTTGG	-0.1 kcal/mol
TTGTCCACGTGGTTGG	0.02 kcal/mol
TGCGACACGTGCGGTG	-0.05 kcal/mol
TCAGGCACGTGGTGGG	-0.2 kcal/mol
TTGGTCACGTGCAAGG	0.11 kcal/mol
GAAATCACGTGGGGCG	0 kcal/mol
TGTGCCACGTGCGGAT	-0.12 kcal/mol
AGGGTCACGTGATCTG	0.21 kcal/mol
CTGAACACGTGGTGTT	0 kcal/mol
TGTCGCACGTGTTGCA	-0.02 kcal/mol
GATGGCACGTGCGGTG	-0.16 kcal/mol
ATGCTCACGTGTGGTT	0.19 kcal/mol
ATTTGCACGTGATGAG	0.07 kcal/mol
GTTCACACGTGTAGGG	0.23 kcal/mol
TCAGTCACGTGTGTGG	0.03 kcal/mol
CTGGTCACGTGGGCCA	0.21 kcal/mol
